# Data from the BET-seq Pho4 binding data (Le et al. 2018).
# The other results are listed elsewhere or left out. The energies were worked out here from pooled read counts, against the library average; single values are noisy.
# Target: T1, Pho4 (S. cerevisiae) (UniProt P07270)
# T1 sequence: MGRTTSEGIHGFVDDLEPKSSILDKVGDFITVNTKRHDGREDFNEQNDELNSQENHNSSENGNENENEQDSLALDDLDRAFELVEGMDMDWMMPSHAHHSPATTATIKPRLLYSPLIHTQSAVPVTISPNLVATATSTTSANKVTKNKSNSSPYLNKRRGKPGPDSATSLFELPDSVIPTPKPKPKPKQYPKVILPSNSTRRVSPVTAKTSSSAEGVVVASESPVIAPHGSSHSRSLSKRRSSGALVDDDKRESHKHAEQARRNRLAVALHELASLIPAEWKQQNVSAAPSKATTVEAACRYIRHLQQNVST
# Assay: relative binding free energy (BET-seq); higher = weaker binding
# Conditions: reference: library average
row,Sequence,relative binding free energy [kcal/mol]
1,CATGTCACGTGGTATT,-0.06
2,TTTTTCACGTGAGTAA,0.32
3,GATTGCACGTGGGTTG,-0.05
4,AATATCACGTGAGTGG,0.31
5,ATGTGCACGTGAACGT,0.06
6,GGCGGCACGTGAGATG,0.3
7,GCATGCACGTGTATGT,0.01
8,TTATTCACGTGTGCGA,0.18
9,GTGGGCACGTGGATCG,-0.01
10,ACCGTCACGTGAGGTG,0.24
11,TTTAGCACGTGAGAAA,0.22
12,GGGTGCACGTGGTAAG,0.04
13,AAAGACACGTGGAGGT,-0.06
14,GATGTCACGTGTGGCC,0.19
15,AATGGCACGTGGAGAG,-0.11
16,ATGCTCACGTGTAATG,0.26
17,ATATTCACGTGGTACG,0.19
18,GGGAACACGTGTTAGA,0.11
19,TGGGACACGTGGGTAC,-0.11
20,GTTATCACGTGGGGTC,0.08
21,AAGGTCACGTGTGAAG,0.16
22,TACGGCACGTGGTAGG,-0.09
23,GTTGGCACGTGATGCT,-0.04
24,TGCTGCACGTGCGTGG,-0.23
25,ATGGCCACGTGGGGTG,-0.17
26,ATAGACACGTGAGGGG,0.23

row,Sequence,relative binding free energy [kcal/mol]
1,TTAGACACGTGATTGT,0.29
2,TGGCACACGTGCTTTG,0.17
3,TAGTTCACGTGAAGAT,0.3
4,ATAAACACGTGAGGGT,0.15
5,TTATACACGTGTGCGT,-0.12
6,ATGATCACGTGGGCTG,0.01
7,TATCGCACGTGTGGAA,-0.05
8,ATGGTCACGTGGAAAG,0.27
9,AACGGCACGTGTGGTT,-0.09
10,GTCTGCACGTGCGGTA,0.08
11,TCTTACACGTGATTTT,0.26
12,ACTAGCACGTGGTTTT,-0.07
13,GGTCTCACGTGGGCCG,0.19
14,TGGTCCACGTGGCGGT,-0.04
15,TAATTCACGTGGGATC,0.17
16,TGGGGCACGTGTGGTT,-0.01
17,CGAGCCACGTGGGTTG,-0.19
18,AGATTCACGTGAGTTT,0.41
19,CTTTTCACGTGTTAGG,0.25
20,TAGTGCACGTGGCGGG,0.01
21,TTTAGCACGTGGCGTC,-0.18
22,TGGAACACGTGTGCTT,0.04
23,CGCAACACGTGTGGGT,0.16
24,TGTTGCACGTGGAAAG,0.18
25,ATTGTCACGTGGCTAC,0.1
26,GTGAGCACGTGGAGGA,0.03

row,Sequence,relative binding free energy [kcal/mol]
1,GTGTACACGTGCAGGA,0.11
2,TGGATCACGTGGTAAT,0.08
3,AAAGGCACGTGTATGT,-0.11
4,AAAGTCACGTGAGGTT,0.32
5,GCTTGCACGTGGGCTG,-0.21
6,TGGGACACGTGTAAAT,0.22
7,GATGGCACGTGGAGTG,0.06
8,ATTTTCACGTGTAGGG,0.27
9,CCAGGCACGTGGGGGT,-0.22
10,AGCGTCACGTGGGTCT,0.07
11,TAGTTCACGTGTTGTG,0.3
12,AGTAGCACGTGTAGGA,-0.03
13,GTATTCACGTGTGTAC,0.16
14,GGGGTCACGTGTATGG,0.17
15,TCGTTCACGTGTGAAG,0.37
16,TGTCACACGTGGGAGA,0.02
17,CTGAGCACGTGTTGGA,-0.06
18,CTCGTCACGTGATTGT,0.22
19,ATTGTCACGTGACGGA,0.1
20,GTGCTCACGTGTGATG,0.33
21,GTTAGCACGTGAGTAA,0.13
22,TAAGGCACGTGATTTG,0.06
23,AGTGTCACGTGATTGG,0.24
24,AATGTCACGTGTTGTC,0.02
25,CAGGGCACGTGGAGCG,-0.09
26,GTAGGCACGTGGTATG,-0.27

row,Sequence,relative binding free energy [kcal/mol]
1,AATAGCACGTGTTTTT,-0.02
2,AGAGCCACGTGGGGTT,-0.2
3,GGGCACACGTGAGTTG,0.28
4,TGGCGCACGTGAAGTT,0.22
5,GGTGGCACGTGCAGGT,-0.08
6,TATGTCACGTGGCAAA,0.1
7,GCAGCCACGTGTGGGG,0.04
8,TGTGGCACGTGTTAGT,-0.02
9,CGAGTCACGTGTTGGG,0.24
10,CGATTCACGTGTAAGG,0.22
11,GAGAGCACGTGGATGG,0
12,TTTGCCACGTGGGTAG,-0.2
13,TGGTACACGTGGCCGT,-0.05
14,GAGGTCACGTGCATTG,0.18
15,TGTTACACGTGCGGTT,0.1
16,AAGGACACGTGTGGGC,0.05
17,TGATGCACGTGTTATG,0.07
18,CTGTGCACGTGCAGGT,-0.12
19,GAAGCCACGTGTTGTT,-0.03
20,CACGGCACGTGGTATG,-0.11
21,TCTGCCACGTGGGGGT,-0.24
22,TAAGGCACGTGGGGTA,-0.24
23,AGATTCACGTGGGAGA,0.24
24,AGTTACACGTGTGGGT,0.14
25,AAGGGCACGTGGATTT,-0.09
26,ATTATCACGTGGTGCG,0.01

row,Sequence,relative binding free energy [kcal/mol]
1,CTGTTCACGTGTGTTG,0.34
2,TAGCTCACGTGTTATG,0.13
3,GGTCGCACGTGATTTT,0.17
4,AAAGGCACGTGGTTTT,-0.24
5,TGGCTCACGTGAAGTT,0.51
6,GTTCACACGTGCGTGG,-0.05
7,CTGTGCACGTGTTATG,-0.07
8,AATTTCACGTGTGTTT,0.36
9,GTTCACACGTGAGGTT,0.39
10,GGTGACACGTGGATGG,0.06
11,CGGCGCACGTGGTGCG,-0.11
12,GTGTTCACGTGACGGG,0.33
13,GAGGGCACGTGGCGAG,-0.24
14,TGGAGCACGTGTACAT,0.03
15,TGTTCCACGTGATTAT,0.09
16,GTGAACACGTGGAGGT,0.08
17,AGAGGCACGTGAGGTG,0.17
18,GGCACCACGTGGTGGG,-0.06
19,GGAGTCACGTGTTCAG,0.2
20,ATTCTCACGTGAGTTG,0.3
21,TGGTTCACGTGGCGCG,0.2
22,TTTATCACGTGTGGCA,0.16
23,TGTGTCACGTGAGAAG,0.25
24,GTTATCACGTGAGGCG,0.3
25,AGGGACACGTGGTGTG,-0.08
26,GCTAGCACGTGGGTGC,-0.11

row,Sequence,relative binding free energy [kcal/mol]
1,CGTTGCACGTGCGGTT,-0.05
2,TTTAGCACGTGGGTAC,-0.19
3,GTTGCCACGTGTGGTC,0.04
4,TCAGTCACGTGTTTGT,0.21
5,TGGCTCACGTGGTGTC,0.16
6,TTCGTCACGTGCGTGA,0.06
7,GTATGCACGTGCAGTG,-0.09
8,GTAGACACGTGGCGTG,0.03
9,AAATGCACGTGGCGGT,-0.25
10,TTATTCACGTGGAAAA,0.4
11,AGGGTCACGTGGACGA,0.07
12,AATAGCACGTGGCGTT,-0.09
13,TTTAACACGTGAGTCA,0.33
14,AAATGCACGTGGGGGT,-0.2
15,TAGTGCACGTGGCTAG,-0.12
16,TCTTTCACGTGATGGG,0.37
17,TATTGCACGTGAAATG,0.22
18,CGTGGCACGTGGTTTT,-0.1
19,ATTGGCACGTGTGTCT,-0.2
20,CGTTACACGTGGGGTA,-0.03
21,TTTAACACGTGTTGAC,0.09
22,GTTTACACGTGGTGTT,0.18
23,CTTCTCACGTGGTGTG,-0.01
24,CTGGTCACGTGATTGC,0.29
25,ATCTGCACGTGATGTT,0.06
26,ATATTCACGTGAGGTT,0.29

row,Sequence,relative binding free energy [kcal/mol]
1,GGGGTCACGTGCGCAG,0.04
2,GGTTTCACGTGAGTAG,0.4
3,ACTTTCACGTGGGTAT,0.1
4,CGTCTCACGTGGGGGG,0.01
5,ATGATCACGTGGGTGT,0.04
6,TAGGACACGTGTTGCT,0.09
7,GGGCTCACGTGAATTT,0.42
8,AGTAGCACGTGGGGAT,-0.16
9,TATGACACGTGAGTTG,0.26
10,ACATTCACGTGATGGT,0.28
11,TCAGACACGTGGCGGG,0.03
12,TAAGGCACGTGTTGCT,-0.17
13,ATTAACACGTGAGGGC,0.23
14,CTTATCACGTGATAGT,0.29
15,AGATGCACGTGGTTCG,-0.17
16,CGGATCACGTGTGGGG,0.2
17,AATGTCACGTGGTACT,-0.05
18,GTGCGCACGTGGGTTT,-0.12
19,TTATACACGTGGCTGG,-0.07
20,GATTTCACGTGAATAT,0.47
21,GTAGGCACGTGGGGGT,-0.2
22,TTTGCCACGTGGAGAT,-0.03
23,ATGGGCACGTGGGTAG,-0.17
24,GGAATCACGTGGGGTT,0.11
25,CTTGTCACGTGTGTGA,0.05
26,GTGGACACGTGTAGAG,0.14

row,Sequence,relative binding free energy [kcal/mol]
1,TAAGACACGTGGGCGG,-0.25
2,GGTTACACGTGGGGGG,0.06
3,ATCTTCACGTGCGGGT,0.18
4,GTTGGCACGTGGATCT,-0.07
5,CGGTGCACGTGGTGAT,-0.07
6,GTAGTCACGTGTTGTT,0.31
7,GGGCACACGTGTGATG,0.28
8,TGGCACACGTGCGGTT,-0.03
9,TAGGGCACGTGATAGC,-0.05
10,TGTCTCACGTGCTGTG,0.03
11,TGGTACACGTGCCGGT,-0.04
12,TTATACACGTGATGAG,0.27
13,TACAGCACGTGGAGGT,-0.22
14,GGATGCACGTGGCTTT,0.04
15,CAGGACACGTGTGGGG,0.09
16,GTGGCCACGTGGGTTG,-0.1
17,GGGCTCACGTGGCGCG,0.19
18,TAAGGCACGTGGAAAG,0.01
19,CTTTTCACGTGCTTGA,0.22
20,TGGGCCACGTGGGGAC,-0.07
21,CGTATCACGTGTAGGG,0.23
22,TTTCTCACGTGGTGCG,0.08
23,ATAATCACGTGTAATT,0.29
24,GGAGTCACGTGCGTGT,0.24
25,CGTGTCACGTGATTGC,0.21
26,ATGGCCACGTGCGGTG,-0.24

row,Sequence,relative binding free energy [kcal/mol]
1,TAAGTCACGTGGGGTA,-0.17
2,GGGGTCACGTGACGTG,0.22
3,AATTTCACGTGATTAG,0.3
4,GAGGGCACGTGACATG,0.15
5,GTAGTCACGTGGCAGT,-0.08
6,CGTCGCACGTGTAGTG,0.06
7,ATTTGCACGTGGAAAG,0.23
8,TGGTACACGTGGTCTT,-0.02
9,TGTGACACGTGAATTT,0.23
10,TGGTCCACGTGTTTAT,0.02
11,TTCTGCACGTGTCTGA,0.12
12,TTTGTCACGTGTTGGC,0.08
13,AATGTCACGTGGACAT,0.23
14,TTGTGCACGTGGGTGC,-0.1
15,GTGTTCACGTGTTCTG,0.26
16,TATGGCACGTGGCTTG,-0.29
17,AATGTCACGTGAAAGG,0.37
18,TGTGTCACGTGTATTA,0.11
19,TGCTTCACGTGCATGT,0.27
20,TTTCGCACGTGGTGGC,-0.02
21,TGTAGCACGTGGTGCC,-0.14
22,GATGGCACGTGAATAG,0.26
